Experiment [1] has as its target T1, FLAG-KDM3A-S264A, full length (UniProt Q9Y4C1).
T1 sequence: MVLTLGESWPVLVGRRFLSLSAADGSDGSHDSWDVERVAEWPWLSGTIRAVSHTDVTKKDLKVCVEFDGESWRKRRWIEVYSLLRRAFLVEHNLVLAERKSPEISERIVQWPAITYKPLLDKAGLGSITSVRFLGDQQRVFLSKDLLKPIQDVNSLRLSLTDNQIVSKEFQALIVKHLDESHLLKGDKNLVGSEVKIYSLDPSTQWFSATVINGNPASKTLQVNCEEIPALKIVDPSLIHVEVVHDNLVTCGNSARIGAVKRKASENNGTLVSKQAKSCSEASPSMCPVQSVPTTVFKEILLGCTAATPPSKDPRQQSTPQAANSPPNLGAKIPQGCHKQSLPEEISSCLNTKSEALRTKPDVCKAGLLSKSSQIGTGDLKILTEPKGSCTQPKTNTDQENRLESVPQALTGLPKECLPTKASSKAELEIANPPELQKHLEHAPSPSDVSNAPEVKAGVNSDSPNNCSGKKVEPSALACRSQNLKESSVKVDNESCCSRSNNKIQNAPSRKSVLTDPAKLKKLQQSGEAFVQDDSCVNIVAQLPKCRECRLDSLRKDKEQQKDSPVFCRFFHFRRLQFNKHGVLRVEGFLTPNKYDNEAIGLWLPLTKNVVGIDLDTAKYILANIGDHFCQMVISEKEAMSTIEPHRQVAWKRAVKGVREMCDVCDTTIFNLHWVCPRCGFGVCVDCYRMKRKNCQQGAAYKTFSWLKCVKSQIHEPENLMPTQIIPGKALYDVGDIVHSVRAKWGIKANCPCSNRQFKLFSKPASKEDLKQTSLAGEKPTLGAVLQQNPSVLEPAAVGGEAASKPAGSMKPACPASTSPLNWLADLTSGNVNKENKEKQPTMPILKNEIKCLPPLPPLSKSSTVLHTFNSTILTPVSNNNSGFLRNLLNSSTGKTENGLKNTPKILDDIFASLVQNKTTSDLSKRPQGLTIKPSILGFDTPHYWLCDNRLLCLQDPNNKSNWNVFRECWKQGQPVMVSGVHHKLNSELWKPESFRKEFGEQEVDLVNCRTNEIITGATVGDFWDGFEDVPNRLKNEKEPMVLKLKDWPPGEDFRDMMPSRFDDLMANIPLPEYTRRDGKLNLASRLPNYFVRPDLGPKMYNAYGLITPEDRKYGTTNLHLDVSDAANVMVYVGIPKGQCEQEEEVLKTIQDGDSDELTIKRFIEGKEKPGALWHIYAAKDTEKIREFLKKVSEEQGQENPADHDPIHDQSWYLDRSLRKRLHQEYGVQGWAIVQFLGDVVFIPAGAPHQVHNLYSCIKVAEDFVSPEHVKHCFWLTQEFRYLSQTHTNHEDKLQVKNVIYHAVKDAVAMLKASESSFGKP
Briefly: co-IP; FLAG-tagged KDM3A constructs transfected into Jurkat cells, with or without heat shock (42°C); whole cell extract, IP anti-FLAG; endogenous partner (Stat1, p-MSK1) by western blot. A general note: Immunoblotting shows a protein as a band on a membrane.

By UniProt entry, the sequences of proteins in these tests, tags left out.
UniProt P42224: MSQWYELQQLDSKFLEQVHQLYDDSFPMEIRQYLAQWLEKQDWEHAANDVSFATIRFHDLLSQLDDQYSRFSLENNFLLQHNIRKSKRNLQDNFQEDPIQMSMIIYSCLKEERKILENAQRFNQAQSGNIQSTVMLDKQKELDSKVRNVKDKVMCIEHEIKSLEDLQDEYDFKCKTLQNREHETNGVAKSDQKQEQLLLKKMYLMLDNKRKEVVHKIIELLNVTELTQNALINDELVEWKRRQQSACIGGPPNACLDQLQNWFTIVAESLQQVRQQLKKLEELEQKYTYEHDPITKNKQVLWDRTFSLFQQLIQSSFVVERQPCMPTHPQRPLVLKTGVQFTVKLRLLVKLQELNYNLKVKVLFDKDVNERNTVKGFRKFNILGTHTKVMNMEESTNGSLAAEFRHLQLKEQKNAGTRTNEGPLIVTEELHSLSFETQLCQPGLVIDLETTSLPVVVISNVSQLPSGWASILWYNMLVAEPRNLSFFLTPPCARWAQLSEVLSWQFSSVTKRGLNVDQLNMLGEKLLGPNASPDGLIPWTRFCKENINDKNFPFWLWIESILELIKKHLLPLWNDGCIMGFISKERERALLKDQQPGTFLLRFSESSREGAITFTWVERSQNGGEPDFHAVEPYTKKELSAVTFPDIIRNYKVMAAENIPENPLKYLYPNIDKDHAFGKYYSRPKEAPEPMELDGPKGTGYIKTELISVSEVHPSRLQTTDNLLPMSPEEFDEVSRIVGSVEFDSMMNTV

In experiment [2] the target is T2, FLAG-KDM3A-S265A, full length (UniProt Q9Y4C1).
T2 sequence: T1 sequence with A264S, S265A
The description is as above.

Residue numbers refer to the chain shown, from its start. Results are given in words; binding and its absence hold for the method and conditions named. Binding seen in cells or lysates may run through a third protein. Some entries that bind do so weakly or less than the wild type. Sequences can lack the tags named with a protein.

Drawing on paper PMC4275180, this text covers binding for one substance.

With “Stat1 (endogenous) (from UniProt P42224 1-750)”, the binding result in experiment [1] is “no binding”; in experiment [2], “binds”.
